Experimental data published in the supplement of paper PMC10126150.
Values marked as one replicate rest on one cluster of the flow cell; about a third of the high ones do not repeat.

Tested on: ATP
Assay: switch fluorescence ratio, 500 uM ATP over buffer (Cy3 cluster intensity, sum of 5 cycles each) (fold (ratio)); higher = stronger signal-on switching upon ATP binding; sequences stand for … in TCGTCGGCAGCGTCAGATGTGTATAAGAGACAGTTTTTTTTTTTTTTTTTTTTTTTTT…TC
Conditions: aptamer strand: ATP DNA aptamer (quencher-CACCTGGGGGAGTATTGCGGAGGAAGG + anchor), 100 nM annealed; ATP concentration: 500 uM; one replicate
How it was run: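 Between each of five buffer/ATP cycles, the flow-cell was stripped with NaOH and re-annealed. Each cycle imaged Cy3-labelled switching-strand clusters, annealed to 100 nM quencher-labelled ATP aptamer on a modified Illumina MiSeq flow-cell, first in selection buffer and then after 15 min with 500 uM ATP at 22 °C. The fluorescence ratio is summed target-cycle over summed buffer-cycle Cy3 intensity per cluster, averaged per switch-domain sequence, with clusters outside 100-1000 RFU excluded.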
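Also: ATP exposure 15 min at 22 °C before imaging.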

Row | Sequence | switch fluorescence ratio
1 | CGCTGGGG | 1.03
2 | CTTTAAACGA | 1.02
3 | AACGAGATTC | 0.999
4 | GCTCATTAAA | 0.991
5 | AAATGCAATG | 1.04
6 | GGCTGATAGG | 1
7 | TTGCGCTAGA | 1.04
8 | AATTTATGCT | 0.962
9 | ATTGTGAGGA | 0.989
10 | GGCTTTTAGA | 0.985
11 | CCGTCGGGGG | 0.997
12 | GCTGTCACAT | 1.07
13 | GTCGTCTGCC | 1.01
14 | TTAATTTTT | 0.968
15 | TGGACAAGGA | 1.02
16 | GAGGCATCGG | 1.01
17 | AAAGCTTCGA | 1.07
18 | TGTTTTGAAG | 0.979
19 | GGGCCGTTTT | 0.97
20 | AGTTGGATTT | 0.932
21 | TGACGCCAAT | 1.21
22 | CTTGCTTGGG | 0.972
23 | GAGCACCCGG | 1.04
24 | CAAGTACCGG | 1.11
25 | CGTATTCTAA | 1.01
26 | TGTGTGACCT | 1.11

Row | Sequence | switch fluorescence ratio
27 | ACTCTGCGGA | 3.05
28 | GTGGTGTATT | 0.966
29 | GCCCGCCGGG | 0.993
30 | CGGGATCAAG | 0.944
31 | CAGATCGCGT | 1.01
32 | TCGAGCCCTG | 1.08
33 | ACATAGTGCG | 1
34 | TTCAAGTCGC | 0.966
35 | TTGACATTTC | 0.994
36 | GAATGACGGT | 1.03
37 | TTTGATCATT | 0.999
38 | GCGGGACCC | 0.964
39 | GCCTGCATT | 0.978
40 | TGGGCTACCC | 1.01
41 | TTTAGTCAGC | 1.02
42 | ACAAAGAGAT | 1.04
43 | AGCGCGGATG | 0.979
44 | AGCAGTAGCA | 1.03
45 | AGTTCATTG | 0.962
46 | GAACCAAATT | 1.02
47 | ATTGGTCTAC | 0.969
48 | CGGGGTGAGT | 0.954
49 | AATGTCTAGC | 0.974
50 | ACTTGCGGGG | 1.01
51 | CGACCTGGGC | 1.07
52 | ACTTGGGCTA | 0.959

Row | Sequence | switch fluorescence ratio
53 | GTGACTACGA | 1
54 | TGGCACAGTC | 1
55 | TTCCAGAATC | 1.07
56 | CCCGCGCGAT | 2.98
57 | GGTTAGAACA | 0.971
58 | TGCCATCTGA | 1.04
59 | GGTTGCAGAT | 0.997
60 | GGAGGGGAAT | 0.977
61 | GCGGAAACCG | 1.05
62 | TGGCGTAAGT | 1
63 | CACGGCGGTA | 1
64 | CAGGCCAGGT | 1.21
65 | GCGTCTGGCT | 0.986
66 | TAACTAAGAA | 1.02
67 | TGAGAGTGTG | 0.993
68 | AGAACCAGTG | 1.08
69 | AGATCGGTG | 0.985
70 | GGATGTAGAC | 0.968
71 | ATGTCTAGGT | 0.957
72 | CGTAAAGAAA | 0.986
73 | AAGAGTTCAC | 1
74 | ATGTAGCTTG | 1.04
75 | TCTGTACCAG | 1.03
76 | AGTATACCAC | 1.08
77 | GCTTTGCTT | 1.01
78 | CGTATACGGG | 1.04

Row | Sequence | switch fluorescence ratio
79 | ATCTCCTGTG | 1.03
80 | CGGACAGTGG | 1.02
81 | ATTTCGCGCG | 0.963
82 | TCAGCCAGTT | 0.972
83 | GCAGGAGGTT | 1.01
84 | GAACAAATGC | 1.08
85 | TTCCATTG | 1.01
86 | AATGCTGTT | 1.03
87 | AGAGGCAGGT | 1.02
88 | TGGGCTCAGT | 0.994
89 | GTTATAGGTT | 0.957
90 | AGATCATAAA | 1.02
91 | CTGTTCCGAC | 1.42
92 | GTCGAACGGG | 1.05
93 | TCTAATGAAC | 1.01
94 | TCGCTGAACG | 1.02
95 | GAAGTTGCAT | 1.01
96 | TTCAGGGGT | 1.08
97 | ATCTCTGCAG | 1.89
98 | TTTCGGTTAC | 1.09
99 | GTGCAAAGCA | 0.994
100 | CGTGAAGGTT | 0.933
101 | CCTCCTATGT | 2.22
102 | AGCGGTAGTT | 0.982
103 | AAACTGTGTG | 0.97
104 | CAAATTCGCG | 1.02

Row | Sequence | switch fluorescence ratio
105 | GTGGTGGTGA | 1.01
106 | TCCATGTAGG | 1.01
107 | AGAAGGGAAC | 1
108 | GTCTGTAAGT | 1
109 | GGAATCCATT | 1.01
110 | CCACCGGCCG | 1.19
111 | CTAGAGGCAT | 1.02
112 | AAGCGCCACG | 1.04
113 | CCATTTTTCT | 0.96
114 | CCTTTATTCT | 1.02
115 | GCTCGACCCC | 1.43
116 | GAGGTTTCGG | 0.955
117 | CAGTGCGGAC | 1.03
118 | AGGACTTGGC | 1.06
119 | TCGCGGTGCT | 1.66
120 | AACGCGAGCC | 1.34
121 | TATTTCTTAT | 1
122 | AGCAATAAAA | 1.05
123 | GCGCGCCCGT | 0.981
124 | TGCGGCTTTG | 0.992
125 | TTTGGTAGTG | 0.994
126 | ATATATATAG | 1.02
127 | CCCCTTTTGT | 1.01
128 | GGGTCGACC | 0.988
129 | CGTCTCTCGC | 1.04
130 | TTTAATGTTC | 1

Row | Sequence | switch fluorescence ratio
131 | GTTGGGCAGT | 1.01
132 | CTCAGGTTCA | 1.01
133 | GTTAGTGAAG | 0.963
134 | AGTTGCTGC | 1.05
135 | CGGCTAGTCG | 1.01
136 | GACAAGGGTA | 0.937
137 | AAAGACCTTA | 1.06
138 | ACGTGTGGGT | 0.972
139 | GGCTAGAACT | 1.01
140 | AGGAGTTCTA | 0.976
141 | TTGGTCAGGT | 0.989
142 | GAGCGAGGCA | 0.994
143 | TAAGTGTTCC | 1.04
144 | TGCGTCAAAC | 1.29
145 | TAGTGTGAAG | 1.03
146 | GGGAGGGAAT | 1.53
147 | TCGGGTGCGT | 0.983
148 | GCCTAACGAT | 1.03
149 | CGCGTGCAG | 0.981
150 | ATGGCGTGG | 0.984
151 | AACCCCGACA | 1.39
152 | TTGTCTAACT | 1.01
153 | CTGTGCGGGC | 1.04
